Whole data set: some 81,000 sequences, median “one-hybrid fitness for binding parS DNA” near -0.17, cut for the highest 2% near 0.51. The list shows a part of the results.
B1: Caulobacter ParB omega fusion; a variant is named by its letters at X, in order, B8GW30 (parent)
chain: MESVVVGEPGMSEGRRGLGRGLSALLGEVDAAPAQAPGEQLGGSREAPIEILQRNPDQPRRTFREEDLEDLSNSIREKGVLQPILVRPSPDTAGEYQIVAGERAWRAAQRAGLKTVPIMVRELDDLAVLEIGIIENVQRADLNVLEEALSYKVLMEKFERTQENIAQTIGKSXSHVANXMRLLXLPDEVQSYLVSGELTAXHARAIAAAADPVALAKQIIEGGLSVRETEALARKAPNLSAGKSKGGRPPRVKDTDTQALESDLSSVLGLDVSIDHRGSTGTLTITYATLEQLDDLCNRLTRGI

Variants of: B1
Experiment: one-hybrid fitness for binding parS DNA (scaled: cognate 1, non-cognate 0); higher = stronger binding
Conditions: with parS DNA site
Summary of the method: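 Caulobacter ParB libraries with four specificity codons randomised were screened by bacterial one-hybrid selection in the E. coli USO strain, using a HIS3 reporter whose site lies 19 bp from the promoter. Selection ran for 48 hours at 37°C on M9 lacking histidine, with 0.1 mM IPTG and 5 mM 3-AT. Plasmids were Illumina-sequenced before and after selection, three replicate libraries were pooled, and variants with under 10 reads were dropped. Fitness is the log change in each variant's read ratio to wild type, rescaled against the cognate and non-cognate sites.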

| Variant | one-hybrid fitness for binding parS DNA |
| --- | --- |
| GVEG | ≤ 0.2 |
| HWSA | ≤ 0.2 |
| GCRC | ≤ 0.2 |
| SPNP | ≤ 0.2 |
| WALP | ≤ 0.2 |
| KCLR | ≤ 0.2 |
| ASDK | ≤ 0.2 |
| VISG | ≤ 0.2 |
| KCYT | ≤ 0.2 |
| RFTL | ≤ 0.2 |
| ARPF | ≤ 0.2 |
| EMMG | ≤ 0.2 |
| NEDS | ≤ 0.2 |
| HPGT | ≤ 0.2 |
| QCGT | ≤ 0.2 |
| WSYC | ≤ 0.2 |
| SHHL | ≤ 0.2 |
| RVGP | ≤ 0.2 |
| NLQN | ≤ 0.2 |
| KASS | ≤ 0.2 |
| SILY | ≤ 0.2 |
| CDPG | ≤ 0.2 |
| NSLT | ≤ 0.2 |
| ERTH | ≤ 0.2 |
| KLPF | ≤ 0.2 |
| IVDR | ≤ 0.2 |

| Variant | one-hybrid fitness for binding parS DNA |
| --- | --- |
| EQMC | ≤ 0.2 |
| CIVP | ≤ 0.2 |
| SAPA | ≤ 0.2 |
| SEPI | ≤ 0.2 |
| PIIL | ≤ 0.2 |
| ADMV | ≤ 0.2 |
| PVWS | ≤ 0.2 |
| SSIT | ≤ 0.2 |
| AQCY | ≤ 0.2 |
| QRYM | ≤ 0.2 |
| DWSG | ≤ 0.2 |
| SKEI | ≤ 0.2 |
| LWPG | ≤ 0.2 |
| MKHF | ≤ 0.2 |
| WLKL | ≤ 0.2 |
| HTNS | ≤ 0.2 |
| ELLV | ≤ 0.2 |
| QKGK | ≤ 0.2 |
| RDMR | ≤ 0.2 |
| QTGN | ≤ 0.2 |
| LRSE | ≤ 0.2 |
| QGTC | ≤ 0.2 |
| MWSG | ≤ 0.2 |
| VLPD | ≤ 0.2 |
| SYTI | ≤ 0.2 |
| LKMR | ≤ 0.2 |

| Variant | one-hybrid fitness for binding parS DNA |
| --- | --- |
| WGRW | ≤ 0.2 |
| QAES | ≤ 0.2 |
| QCWR | ≤ 0.2 |
| DPHN | ≤ 0.2 |
| QCHD | ≤ 0.2 |
| WSKR | ≤ 0.2 |
| TWMS | ≤ 0.2 |
| QVRS | ≤ 0.2 |
| NLGS | ≤ 0.2 |
| QWCF | ≤ 0.2 |
| QWKG | ≤ 0.2 |
| NSYS | ≤ 0.2 |
| VHMV | ≤ 0.2 |
| LEQT | ≤ 0.2 |
| MYRK | ≤ 0.2 |
| DRPL | ≤ 0.2 |
| ASIY | ≤ 0.2 |
| RWAW | ≤ 0.2 |
| MWPT | ≤ 0.2 |
| PSTK | ≤ 0.2 |
| YASL | ≤ 0.2 |
| GLLG | ≤ 0.2 |
| KRFC | ≤ 0.2 |
| VLLI | ≤ 0.2 |
| PQVC | ≤ 0.2 |
| DNWR | ≤ 0.2 |

| Variant | one-hybrid fitness for binding parS DNA |
| --- | --- |
| WYSV | ≤ 0.2 |
| KDKE | ≤ 0.2 |
| VLPS | ≤ 0.2 |
| ANYF | ≤ 0.2 |
| RHND | ≤ 0.2 |
| MQVQ | ≤ 0.2 |
| EPVT | ≤ 0.2 |
| MGST | ≤ 0.2 |
| ACDY | ≤ 0.2 |
| YYWS | ≤ 0.2 |
| HAML | ≤ 0.2 |
| DFID | ≤ 0.2 |
| LGQL | ≤ 0.2 |
| PLAR | ≤ 0.2 |
| HDSL | ≤ 0.2 |
| THCE | ≤ 0.2 |
| YPIT | ≤ 0.2 |
| IIYI | ≤ 0.2 |
| PYIE | ≤ 0.2 |
| QGEC | ≤ 0.2 |
| KEPT | ≤ 0.2 |
| TGTH | ≤ 0.2 |
| KYDR | ≤ 0.2 |
| LICV | ≤ 0.2 |
| NPPK | ≤ 0.2 |
| NPFT | ≤ 0.2 |

| Variant | one-hybrid fitness for binding parS DNA |
| --- | --- |
| SDKR | ≤ 0.2 |
| GCIC | ≤ 0.2 |
| RYPS | 0.635 |
| CGVC | ≤ 0.2 |
| QRIA | ≤ 0.2 |
| LVVT | ≤ 0.2 |
| TEYT | ≤ 0.2 |
| EWGC | ≤ 0.2 |
| HTYW | ≤ 0.2 |
| LHAA | ≤ 0.2 |
| DETR | ≤ 0.2 |
| GTTS | ≤ 0.2 |
| LTTR | ≤ 0.2 |
| SAQG | ≤ 0.2 |
| STYY | ≤ 0.2 |
| QADL | ≤ 0.2 |
| IKYW | ≤ 0.2 |
| MKNI | ≤ 0.2 |
| RSQP | ≤ 0.2 |
| LLAR | ≤ 0.2 |
| TSGG | ≤ 0.2 |
| LYNC | ≤ 0.2 |
| MMWS | ≤ 0.2 |
| AAKL | ≤ 0.2 |
| KKKG | ≤ 0.2 |
| FSGR | ≤ 0.2 |

| Variant | one-hybrid fitness for binding parS DNA |
| --- | --- |
| PTSL | ≤ 0.2 |
| AKHA | ≤ 0.2 |
| RTQH | 0.332 |
| WSDE | ≤ 0.2 |
| EHAY | ≤ 0.2 |
| ADLC | ≤ 0.2 |
| NIVA | ≤ 0.2 |
| QDSL | ≤ 0.2 |
| VCFG | ≤ 0.2 |
| AMCG | ≤ 0.2 |
| WSKV | ≤ 0.2 |
| AFGL | ≤ 0.2 |
| MHMS | ≤ 0.2 |
| AAVS | ≤ 0.2 |
| SRET | ≤ 0.2 |
| ASAC | ≤ 0.2 |
| FHRF | ≤ 0.2 |
| WAMH | ≤ 0.2 |
| IANR | ≤ 0.2 |
| GMVR | ≤ 0.2 |
| WHQC | ≤ 0.2 |
| NSLA | 0.226 |
| RCLY | 0.49 |

— a collection of fitness landscapes (doi:10.1016/j.celrep.2020.107928)
